Read counts are not given, so values of variants with three or more changes are uncertain.
B1: LINE1-mini (parent)
chain: GGCAGAGCUCAACACAGCGUGGCAAAGUGGCUGUGGCUAGACUGCC

Variants of: B1
Assay: self-cleavage, relative activity (ratio to wild type); higher = more cleavage; in vitro, sequencing; the parent is a self-cleaving ribozyme

| Variant | self-cleavage |
| --- | --- |
| C18A U32C G33C C37U | 0.02 |
| C8U G17C A26C | 0.28 |
| A14G C15G G29A G36C | 0.03 |
| C10G G29C G40A C45A | 0.01 |
| A11G C15A C18A | 0.03 |
| U20C U32G C42G C45A | 0 |
| G22A C23U A26G | 0.21 |
| C8U A11C C13U C31U U32G G35U | 0.03 |
| G1C G2C C3A A25U C31U A39G C42U | 0.19 |
| A11C G17A U20G | 0.01 |
| C3U C31U C45G | 0.03 |
| G2C A6U C18A U32G | 0.04 |
| C31U U34A G40C | 0 |
| A4C A24G G30U | 0.04 |
| G5C G27U G30U G36U | 0.01 |
| U32G G44U C46A | 0.02 |
| C42U G44A C46G | 0.09 |
| A14C U28C U38A G40C C46U | 0.06 |
| C15U A24U G36U | 0.04 |
| A6G U9A C37A G40U | 0.12 |
| C8U C31A G36U G44C | 0.04 |
| A6C A25U C31G | 0.08 |
| G30C U32G C37U U38C A41C | 0.06 |
| G7U U34G A41C | 0.08 |

| Variant | self-cleavage |
| --- | --- |
| G2U C31U U34A | 0.04 |
| A16U G21A G27U C45A | 0.3 |
| G5A C23G A24C U28C C45A | 0.02 |
| A6C G7C C37A G40A | 0.03 |
| C3A G21U G22U | 1.91 |
| G5C G19A G21U C23G | 0.02 |
| A24C U28G U32A | 0.03 |
| G7C U43C C45U | 0.07 |
| G2C C13U C42U C46G | 0.06 |
| C3A C15U A16C U20G U38G | 0.05 |
| C3U G5A G40U C45A C46U | 0.09 |
| U20C G22U G40C | 0.04 |
| G1C A25C C45U | 0.06 |
| C18G A25G U34C | 0.17 |
| A6U C37U A41G | 0.05 |
| G2A G22C C31A | 0.29 |
| A12U C31G G40A | 0.03 |
| G19A A26U U28G | 2.15 |
| A26U G35C G36A | 0.02 |
| C8A G27U G33U | 0.24 |
| C13U C31G G35U | 0.24 |
| G5U U28C C46U | 0.02 |
| G1U U38A G44U | 0.16 |
| A6G G7U G17U G22C A26C U38C G40U | 0.03 |

| Variant | self-cleavage |
| --- | --- |
| G19U C37U U38G C45A | 0.02 |
| G5U C10A C37A | 0.01 |
| A6U A12U G19C A26G A41C | 0.01 |
| G2A G21U G40U | 0.12 |
| A16U C31U G36U G44A | 0 |
| G5A A11G A25G | 0.01 |
| G1A C8U C10G A12C A41U | 0.02 |
| G7U A11C G29C | 0.01 |
| G2U A6C G7U A39U | 0.03 |
| G2C G22A G27A C46A | 0.18 |
| G1U U34G C42A C46U | 0.02 |
| G21U C23G A24C A39U G40U C45G | 0.04 |
| G5U C18G G29C A39C | 0.07 |
| C18G G21C G27A U43A | 0.1 |
| U20A U32C G35A | 0.01 |
| A12C C15U A25U | 0.03 |
| A16U C18U G22C | 0.03 |
| G17U G29C C46U | 0.77 |
| A4U A12C G19C C23A U43A | 0.01 |
| C15A G19A C37A | 0.01 |
| U9A A14U U43A | 0.21 |
| G2C C15G G19A G40A | 0.02 |
| A11U G36A A41C | 0.04 |
| G2U C8U A41C | 0.02 |

| Variant | self-cleavage |
| --- | --- |
| C8A C10U A16U | 0.05 |
| U28A G30C G35C C37U | 0.01 |
| C3G G5U C13U G19C G30U | 0.15 |
| A16G G29U C45U | 0.16 |
| C3U G7U U20G U34C A39U U43C | 0.02 |
| G19U G21U A24G U32C C45A | 0.04 |
| C13U G17U A41U C42A | 0 |
| G22U U28G G29C C42A | 0.12 |
| G19A G29U U34G C42G C46U | 0.02 |
| C13G C23A A41G C42G | 0.02 |
| G2A C10A A25U A26G G40A | 0.01 |
| G1C C3A C37G G40A | 0.1 |
| G5C C15A A16G C42A | 0.01 |
| A6C U28A U38C | 0.12 |
| G2A U28A G29U | 0.3 |
| C3A C13A G19C A25C G30U | 0.07 |
| C8G U9G G40C | 0.01 |
| U9A G17U G19A | 0.02 |
| U34G G36C A41C | 0.01 |
| G1C A6U A16C C23U | 0.06 |
| G7C C10U C13A G17U G30U | 0.02 |
| G1A G17C G21A A25C G30C G33U U34C | 0.11 |
| C3G C8U A14G G27U | 0.01 |
| A16C G21A C42U C46A | 0.04 |

| Variant | self-cleavage |
| --- | --- |
| C15U C18G A26G C37A C42G | 0.01 |
| C18G G19C A41G | 0.23 |
| A11C C13G C15U C31G A41C | 0.01 |
| A6U C8G U34G G35U | 0.03 |
| G22A U28A U34A C46A | 0.07 |
| A14U A25G G33C A39C | 0 |
| A16C G17A C37U U38G | 0.04 |
| G1C A11U U38C | 0.01 |
| G1A G17C A26G A39C | 0.01 |
| A4C A6C U9A G21A G40C | 0.17 |
| G5A C8U C46U | 0.17 |
| A24U G36A U38A C42G U43A | 0.03 |
| A4U G5C U9C A14C A24U | 0.04 |
| C3G U9G A14U C15G G27U C37A G40A | 0 |
| C10A G19U G22U G27U U32G G40U | 0 |
| A12G G21U C23G U32C | 0.02 |
| A11G G33C G40C G44U | 0.02 |
| G19U G30U G40A | 0.04 |
| C8U G21U G27A G36C | 0.94 |
| A14C G22U C42U | 0.12 |
| U9G C13A C23U C31G | 0.08 |
| U28A G29C C37U | 0.04 |
| G1U C10U G22A | 0 |
| A6U C10U G19A G35U U38A A39G A41C U43G | 0.07 |

| Variant | self-cleavage |
| --- | --- |
| G7U U28G U32C | 0.06 |
| U32A U38C C45U | 0.01 |
| A6G A24G U32A | 0.15 |
| C3G G19C U20A G33C | 0.1 |
| C13A C15U G19U A24G C45U | 0.08 |
| C23A A26U G35A C37U | 0.03 |
| A14U A16U A25C | 0.05 |
| A6G G7A G27U G29A | 0.03 |
| A16C G35U C45U | 0 |
| G1U C13U U43G | 0.1 |
| C10A A39C C46A | 0 |
| C3G C23U G36U G44C | 0.02 |
| A4G G5U G22A G29C C37U | 0.05 |
| C3U A4C C10U | 0.06 |
| G5A G40C C42A | 0.03 |
| C23G A26U G27U G30A G35U | 0.02 |
| C10U G21C C23G U32G | 0.06 |
| A11U A14C A25U C31A | 0.03 |
| C10U A12U G22C | 0.08 |
| G5A A25G A26C G27C G36C C46A | 0.04 |
| C8A G22U C23G G35A | 0.51 |
| G2U G19A G27U | 0.24 |
| G2A C18A G22A G35U U43G C46U | 0.09 |
| G1U C23G C45A | 0.15 |

| Variant | self-cleavage |
| --- | --- |
| G17U C23A C31A U38G | 0 |
| C10A A12G G29U A41C | 0.01 |
| G1U C8A G40U | 0.05 |
| G1A C3G A16U A24C G29A | 0.21 |
| G1U C18U C23A | 1.65 |
| A6G G27A G29A | 0.15 |
| G2A U32A C46U | 0.04 |
| G1C G5U C10G U32C U34G C42A | 0.01 |
| G7U A26C G35A G36C G44U | 0.06 |
| U9G A14G U20A G22A G27A | 0.04 |
| G1A A25U A41U U43G | 0.05 |
| G5A A16G G22U | 0.03 |
| C23A U32C U34A C37U | 0.04 |
| G7C U9C A11U | 0.03 |
| C3A C8A C31U G35C | 0.54 |
| A26G G27U G40U C42G | 0 |
| G7C C8G A14C G35U | 0.3 |
| G7U G17C G36U U38G C46A | 0.01 |
| A6U C10U A14U A25C | 0.01 |
| G1A A14U A39G | 0.34 |
| A6U C13U A26G | 0.01 |
| A6C A24G A25C | 0.33 |
| G7U A14U A24G G30A A39G | 0.27 |

Reference: the RNAGym collection of RNA variant scans (doi:10.7554/elife.90254)
